The whole screen tested about 310,000 compounds, of which about 14,000 (4.5%) showed an effect of 50% or more. The effect is printed as a negative number. The list shows a part of the results.
Target: human ether-à-go-go-related gene (hERG) potassium channel (human, UniProt Q12809)
Test: primary screen, population patch clamp on CHO cells stably expressing hERG
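Also: peak tail current of the secondary pulse compared with the same well before compound.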

Chain of human ether-à-go-go-related gene (hERG) potassium channel (Q12809 whole entry, looked up): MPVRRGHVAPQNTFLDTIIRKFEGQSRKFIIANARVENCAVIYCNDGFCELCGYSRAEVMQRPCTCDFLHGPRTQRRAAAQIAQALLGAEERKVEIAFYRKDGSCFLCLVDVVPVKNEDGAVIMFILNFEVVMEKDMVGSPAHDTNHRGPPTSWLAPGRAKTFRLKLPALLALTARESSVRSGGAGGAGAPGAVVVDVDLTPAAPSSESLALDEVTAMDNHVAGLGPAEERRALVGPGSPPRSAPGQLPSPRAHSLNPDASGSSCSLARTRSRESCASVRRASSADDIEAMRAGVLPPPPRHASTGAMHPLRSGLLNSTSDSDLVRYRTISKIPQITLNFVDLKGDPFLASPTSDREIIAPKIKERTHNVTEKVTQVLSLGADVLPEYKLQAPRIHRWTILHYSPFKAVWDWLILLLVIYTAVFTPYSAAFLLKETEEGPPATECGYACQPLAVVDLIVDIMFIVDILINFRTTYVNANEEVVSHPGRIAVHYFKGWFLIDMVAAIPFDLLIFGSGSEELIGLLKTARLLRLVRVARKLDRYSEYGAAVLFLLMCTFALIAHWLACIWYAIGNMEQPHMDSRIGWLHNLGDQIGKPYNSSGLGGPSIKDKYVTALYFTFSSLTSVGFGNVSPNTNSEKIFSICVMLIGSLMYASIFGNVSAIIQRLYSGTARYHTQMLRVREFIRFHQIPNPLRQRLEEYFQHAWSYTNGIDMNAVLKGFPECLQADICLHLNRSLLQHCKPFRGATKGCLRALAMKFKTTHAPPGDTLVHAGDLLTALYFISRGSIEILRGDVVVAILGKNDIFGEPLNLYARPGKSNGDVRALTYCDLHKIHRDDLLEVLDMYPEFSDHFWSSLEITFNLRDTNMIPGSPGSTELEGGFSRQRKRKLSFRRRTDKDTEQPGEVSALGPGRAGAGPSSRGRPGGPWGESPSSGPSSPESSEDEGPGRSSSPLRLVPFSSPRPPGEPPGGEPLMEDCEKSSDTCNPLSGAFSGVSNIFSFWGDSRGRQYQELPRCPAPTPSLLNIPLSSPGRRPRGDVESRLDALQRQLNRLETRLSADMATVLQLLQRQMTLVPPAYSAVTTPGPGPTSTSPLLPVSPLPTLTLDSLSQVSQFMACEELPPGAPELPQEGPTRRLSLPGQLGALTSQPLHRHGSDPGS

Row | SMILES | hERG current change (%, negative = inhibition) at 10uM
1 | CC1=C(C(N)=O)C(c2ccccc2F)n2nc(CCCO)nc2N1 (stereo not drawn) | 20.3%
2 | CCOc1ccc(/C=C/C(=O)c2cc(Br)ccc(=O)c2O)cc1 | -6.36%
3 | CCOC(=O)C1(CCCc2ccccc2)CCN(C2CCC2)CC1 | -74.8%
4 | Cc1cc(C)c2nc(N3CCOCC3)c(C#N)cc2c1 | 24.5%
5 | Cc1cc(Cl)ccc1NC(=O)CCN1C(=O)NC(C)(C)C1=O | 14.8%
6 | COc1ccc(CC(=O)N(C)CC(=O)Nc2c(C)cccc2C)cc1S(=O)(=O)N1CCOCC1 | 3.28%
7 | CCOC(=O)N1CCN(CC(O)COc2ccccc2C(C)CC)CC1.Cl (stereo not drawn) | 0.934%
8 | Nc1c(C(=O)NCc2ccco2)sc2nc3c(cc12)C(=O)CCC3 | -16.9%
9 | O=C(NC1CCCCC1)c1cc([N+](=O)[O-])ccc1N1CCCC1 | -0.526%
10 | N#CCN1C(=O)NC2(CCCc3sccc32)C1=O (stereo not drawn) | 11.1%
11 | CC(C)(C)NC(=O)CSc1nc(N)c(-c2ccccc2)c(=O)[nH]1 | 15.7%
12 | CCOC(CCn1c(SCC(=O)NC2CCCC2)nc2ccccc2c1=O)OCC | 0.376%
13 | COc1ccc(C)cc1-n1nnnc1SCC(=O)NNC(=O)c1ccc([N+](=O)[O-])cc1 | -30.6%
14 | O=C(NCc1ccco1)c1cccc2ccccc12 | 3.37%
15 | O=C(c1ccccc1)C(O)c1ccccc1 (stereo not drawn) | 17.4%
16 | COC(=O)c1ccc(C)c(NC(=O)c2c(-c3ccccc3)noc2C)c1 | -11.9%
17 | CC(Nc1nc(-c2ccc(F)cc2)cs1)c1nc2cc(Cl)c(Cl)cc2n1CCCO (stereo not drawn) | 3.69%
18 | CCC(C)NC(=O)c1cc2cc3ccc(OC)cc3nc2s1 (stereo not drawn) | 4.84%
19 | COC(=O)c1ccc(/C=C(\C#N)C(=O)NC(C)c2ccccc2)cc1 (stereo not drawn) | 10.6%

Row | SMILES | hERG current change (%, negative = inhibition) at 10uM
20 | CCOC(=O)c1cc(-c2ccccc2C)nn1CC1CC(c2ccc(OC)cc2)=NO1 (stereo not drawn) | 3.54%
21 | Cn1cc(CCNC(=O)c2ccc3nc(Cc4ccccc4F)oc3c2)cn1 | -12.1%
22 | CCN1C(=O)C(O)(C2COC(C)(C)CC2=O)c2cc(Br)ccc21 (stereo not drawn) | -0.733%
23 | COc1ccc(NC(=O)C2C3C=CC(C3)C2C(=O)NCc2ccco2)c(OC)c1 (stereo not drawn) | 12.3%
24 | Cc1ccc(NS(=O)(=O)c2ccc(-n3cccn3)cc2)cc1C | 24.4%
25 | Nc1ccc(O)cc1 | 10.9%
26 | COc1ccc(/C(O)=C2/C(=O)C(=O)N(CC3CCCO3)C2c2cccc(O)c2)cc1 (stereo not drawn) | 0.277%
27 | O=c1oc2ccccc2n1Cc1cccc(C(F)(F)F)c1 | -9.86%
28 | CC(=O)c1ccc(OC(C)C)c(Cc2c(O)[nH]c(=S)[nH]c2=O)c1 | 21.8%
29 | CCn1c(CNC(=O)c2cc(OC)c(OC)c(OC)c2)cc2cc(C)ccc21 | 18.5%
30 | CN1CCN(S(=O)(=O)c2ccc(NC(=O)COc3ccccc3Cl)cc2)CC1 | 20.1%
31 | COc1ccc(CCNC(=O)CCCn2nc(C)c([N+](=O)[O-])c2C)cc1OC | 3.33%
32 | COC(=O)Cn1c(=NC(=O)CN2C(=O)CCC2=O)sc2cc(S(N)(=O)=O)ccc21 | 14.5%
33 | CCOc1cnc(-c2ccccc2F)o1 | 14.3%
34 | Cl.Fc1ccc(C(c2nnnn2Cc2cccs2)N2CCN(C3CCCC3)CC2)cc1 (stereo not drawn) | -67.4%
35 | CC(C)C(=O)NNc1nc2ccccc2s1 | -27.4%
36 | CCOC(=O)CNC(=O)C(Cc1ccccc1)NS(=O)(=O)c1cccs1 (stereo not drawn) | -2%
37 | Nc1nc(N)nc(-c2cc(C(F)(F)F)ccc2Cl)n1 | 11.9%
38 | O=S(=O)(NCCN1CCOCC1)c1cc(Cl)c(Cl)cc1Cl | 6.12%

Row | SMILES | hERG current change (%, negative = inhibition) at 10uM
39 | CN(CC(=O)N1CCCC1)S(=O)(=O)c1ccc2ccccc2c1 | -8.93%
40 | COc1ccccc1/C=C/C=N/N1CCN(Cc2ccc(Cl)cc2)CC1.Cl | 7.74%
41 | COc1ccc(C(=O)N2CCN(c3nnnn3-c3ccccc3)CC2)cc1OC | -30.5%
42 | CC(=O)N1CCC(N(CCN2CCOCC2)C(=S)Nc2ccc(C)cc2C)CC1 | 1.48%
43 | COc1ccc(CCNc2ncccc2C#N)cc1OC | 22.8%
44 | Cc1cc(-c2nn(-c3ccccc3F)cc2CNCCc2cnccn2)c(C)s1 | -52.3%
45 | O=S(=O)(c1cc(F)cc(F)c1)N1CCN(c2ncccn2)CC1 | 5.03%
46 | CCC(=O)NC(=S)Nc1ccccc1OC | -13.9%
47 | COc1ccc(CN2CCN(C(=O)CC(C)C)CC2)cc1OC | -0.529%
48 | O=C(NCC1CCCO1)C1CC(c2ccccc2Cl)=NO1 (stereo not drawn) | -2.99%
49 | CCCOC1CCCN(C(=O)c2cc(COc3c(F)cccc3F)on2)C1 (stereo not drawn) | -14.3%
50 | COC(=O)c1ccc(Cl)c(NC(=O)CN(c2ccc(OC)c(OC)c2)S(C)(=O)=O)c1 | 0.0568%
51 | O=C(CN(c1cccc(Br)c1)S(=O)(=O)c1ccccc1)N/N=C/c1cc([N+](=O)[O-])ccc1O | -3.59%
52 | COc1ccc(-c2cc(C(=O)Nc3ccc(Br)cc3)no2)cc1 | 5.97%
53 | CC(=O)N1N=C(c2ccccc2)CC1c1ccc2c(c1)OCO2 (stereo not drawn) | 1.98%
54 | Cc1cc(-c2n[nH]c(=S)n2Cc2ccco2)n(C)n1 | 14.6%
55 | COC(=O)c1ccc(C(=O)OC)c(NC(=O)CN(C)Cc2cccc(Cl)c2Cl)c1 | 4.6%
56 | CCCS(=O)(=O)N1CCCC(C(=O)NCc2ccc3c(c2)OCO3)C1 (stereo not drawn) | -11%
57 | CCOC(=O)N1CCC(n2c(SCC(=O)NCCC3=CCCCC3)nc3ccccc3c2=O)CC1 | -59.3%

Source: paper PMC4336329 (PLoS ONE, 2015)
